In patent publication US11618753B2 (priority 2018, dated 2023) one finds IC50 data, which are given here for 26 molecules.

Structures are written as SMILES.

The test deals with MLKL phosphorylation, HT29-L23 human colorectal adenocarcinoma cells. Nature of the test: cells. The conditions noted are these: read-out: pMLKL HCS Cell Assay (IC50, uM).
A word on the IC50: it is the midpoint of a concentration-inhibition curve. With `COc1ncc(-c2cc(C(F)(F)F)c3c(N)ncnn23)cc1C(=O)N[C@@H]1CN(C(=O)c2c(F)cccc2F)C[C@@H]1F` [Example 306, 5-[4-amino-5-(trifluoromethyl)pyrrolo[2,1-f][1,2,4]triazin-7-yl]-N-[(3R,4S)-1-(2,6-difluorobenzoyl)-4-fluoropyrrolidin-3-yl]-2-methoxypyridine-3-carboxamide], the IC50 was found to be 0.0094 µM.

`COc1ncc(-c2cc(C(F)(F)F)c3c(N)ncnn23)cc1C(=O)NC1CN(C(C)C2CCC(F)(F)C2)C[C@@H]1F` (some centres unmarked) [Example 1382]: the IC50 worked out at 0.026 µM.

Consider `Cc1cc(F)c(-c2cc(CN3CCC(F)(F)CC3)c3c(N)ncnn23)cc1C(=O)N[C@@H]1CN(C(=O)CC(C)C)C[C@@H]1F` [Example 1659, 5-{4-amino-5-[(4,4-difIuoropiperidin-1-yl)methyl]pyrrolo[2,1-f][1,2,4]triazin-7-yl}-4-fluoro-N-[(3R,4S)-4-fluoro-1-(3-methylbutanoyl)pyrrolidin-3-yl]-2-methylbenzamide], for which the half-maximal inhibitory concentration (IC50) stood at 0.00048 µM.

On to `Cc1c(F)cc(-c2cc(C(F)(F)F)c3c(N)ncnn23)cc1C(=O)N[C@@H]1CN(C(=O)C2CC23CC3)C[C@@H]1F` (stereo partly drawn) [Example 1317, 5-[4-amino-5-(trifluoromethyl)pyrrolo-[2,1-f][1,2,4]triazin-7-yl]-3-fluoro-N-((3R,4S)-4-fluoro-1-{spiro[2.2]pentane-1-carbonyl}pyrrolidin-3-yl]-2-methyl-benzamide], for which the 50% inhibitory concentration (IC50) was found to be 0.0075 µM.

Turning to `Cc1ncc(-c2cc(C(F)(F)F)c3c(N)ncnn23)cc1C(=O)N[C@@H]1CN(C(=O)C2(F)CC2)C[C@@H]1F` [Example 369, 5-[4-amino-5-(trifluoromethyl)pyrrolo [2,1-f][1,2,4]triazin-7-yl]-N-[(3R,4S)-4-fluoro-1-(1-fluorocyclopropane-carbonyl)pyrrolidin-3-yl]-2-methyl-pyridine-3-carboxamide], the half-maximal inhibitory concentration (IC50) came to 0.017 µM.

As for `COc1ncc(-c2cc(C(F)(F)F)c3c(N)ncnn23)cc1C(=O)N[C@@H]1CN(C(=O)CC(C(F)(F)F)C(F)(F)F)C[C@@H]1F` [Example 1222, 5-[4-amino-5-(trifluoromethyl)pyrrolo[2,1-f][1,2,4]triazin-7-yl]-N-[(3R,4S)-4-fluoro-1-[4,4,4-trifluoro-3-(trifluoromethyl)butanoyl]pyrrolidin-3-yl]-2-methoxypyridine-3-carboxamide], the half-maximal inhibitory concentration (IC50) stood at 0.0047 µM.

`CCOc1ccc(-c2cc(C(F)(F)F)c3c(N)ncnn23)cc1C(=O)N[C@@H]1CN(C(=O)CC(C(F)(F)F)C(F)(F)F)C[C@@H]1F` [Example 1110, 5-[4-amino-5-(trifluoromethyl)pyrrolo[2,1-f][1,2,4]triazin-7-yl]-2-ethoxy-N-[(3R,4S)-4-fluoro-1-[4,4,4-trifluoro-3-(trifluoromethyl)butanoyl]pyrrolidin-3-yl]benzamide]: the IC50 worked out at 0.018 µM.

As to `COc1ncc(-c2cc(C(F)(F)F)c3c(N)ncnn23)cc1C(=O)N[C@@H]1CN(C(=O)C2CC(F)(F)C2)C[C@@H]1C` [Example 298, 5-[4-amino-5-(trifluoromethyl)pyrrolo[2,1-f][1,2,4]triazin-7-yl]-N-[(3S,4S)-1-(3,3-difluorocyclo-butanecarbonyl)-4-methyl-pyrrolidin-3-yl]-2-methoxy-pyridine-3-carboxamide], the IC50 is 0.187 µM.

With `Nc1ncnn2c(-c3ccc(Cl)c(C(=O)N[C@@H]4CN(C(=O)C5(F)CC5)C[C@@H]4F)c3)cc(CN3CCC(F)(F)CC3)c12` [Example 1143, 5-{4-amino-5-[(4,4-difluoropiperidin-1-yl)methyl]pyrrolo[2,1-f][1,2,4]triazin-7-yl}-2-chloro-N-[(3R,4S)-4-fluoro-1-(1-fluorocycloproapnecarbonyl)pyrrolidin-3-yl]benzamide], the half-inhibitory concentration (IC50) is 0.00053 µM.

Take `COc1ncc(-c2cc(C(F)(F)F)c3c(N)ncnn23)cc1C(=O)NC1CN(C(C)c2c(C)noc2C)C[C@@H]1F` (stereo partly drawn) [Example 1401, 5-[4-amino-5-(trifluoromethyl)-pyrrolo[2,1-f][1,2,4]triazin-7-yl]-N-[(3R,4S)-1-[1-(3,5-dimethyl-1,2-oxazol-4-yl)-ethyl]-4-fluoropyrrolidin-3-yl]-2-methoxypyridine-3-carboxamide]: the IC50 came to 0.078 µM.

For `COc1ncc(-c2ccc3c(N)ncnn23)cc1C(=O)N[C@@H]1CN(C(=O)C2CCOCC2)C[C@@H]1F` [Example 155, 5-{4-aminopyrrolo[2,1-f][1,2,4]triazin-7-yl}-N-[(3R,4S)-4-fluoro-1-(oxane-4-carbonyl)pyrrolidin-3-yl]-2-methoxypyridine-3-carboxamide], the IC50 was 0.367 µM.

With `COc1ncc(-c2cc(CO)c3c(N)ncnn23)cc1C(=O)NCC[C@H](O)c1ccc(Cl)cc1` [Example 52, (S)-5-(4-amino-5-(hydroxymethyl)pyrrolo[2,1-f][1,2,4]triazin-7-yl)-N-(3-(4-chlorophenyl)-3-hydroxypropyl)-2-methoxynicotinamide], the half-maximal inhibitory concentration (IC50) worked out at 0.042 µM.

Take `Cc1nc(C)c(-c2cc(C(F)(F)F)c3c(N)ncnn23)cc1C(=O)N[C@@H]1CN(C(=O)C2CCC(F)(F)C2)C[C@@H]1F` (single isomer, unassigned) [Example 526]: the IC50 stood at 0.108 µM.

As for `Cc1ccnc(C(=O)N2C[C@H](F)[C@H](NC(=O)c3cc(-c4cc(C(F)(F)F)c5c(N)ncnn45)c(F)cc3C)C2)c1` [Example 839, 5-[4-amino-5-(trifluoromethyl)pyrrolo[2,1-f][1,2,4]triazin-7-yl]-4-fluoro-N-[(3R,4S)-4-fluoro-1-(4-methylpyridine-2-carbonyl)pyrrolidin-3-yl]-2-methylbenzamide], the IC50 amounted to 0.019 µM.

Turning to `COc1c(F)cc(-c2cc(C(F)(F)F)c3c(N)ncnn23)cc1C(=O)N[C@@H]1CN(C(=O)CC(C(F)(F)F)C(F)(F)F)C[C@@H]1F` [Example 691, 5-[4-amino-5-(trifluoromethyl)pyrrolo[2,1-f][1,2,4]triazin-7-yl]-3-fluoro-N-[(3R,4S)-4-fluoro-1-[4,4,4-trifluoro-3-(trifluoromethyl)butanoyl]pyrrolidin-3-yl]-2-methoxybenzamide], the IC50 amounted to 0.016 µM.

`Cc1cc(C(=O)N2C[C@H](F)[C@H](NC(=O)c3cc(-c4cc(C(F)(F)F)c5c(N)ncnn45)ccc3C)C2)n(C)n1` [Example 1033, 5-[4-amino-5-(trifluoromethyl)pyrrolo[2,1-f][1,2,4]triazin-7-yl]-N-[(3R,4S)-1-(1,3-dimethyl-1H-pyrazole-5-carbonyl)-4-fluoropyrrolidin-3-yl]-2-methylbenzamide]: the IC50 was found to be 0.097 µM.

With `Nc1ncnn2c(-c3cccc(C(=O)NCCC(O)c4ccccc4)c3)ccc12` (centres unmarked) [Example 59, 3-(4-aminopyrrolo[2,1-f][1,2,4]triazin-7-yl)-N-(3-hydroxy-3-phenylpropyl)benzamide], the IC50 stood at 0.231 µM.

As to `COc1ncc(-c2cc(C(F)(F)F)c3c(N)ncnn23)cc1C(=O)N[C@H]1CC[C@@H](c2ccc(Br)cc2)C1` (racemic) [Example 1687, 5-(4-amino-5-(trifluoromethyl)pyrrolo[2,1-f][1,2,4]triazin-7-yl)-N-((1SR,3RS)-3-(4-bromophenyl)cyclopentyl)-2-methoxynicotinamide], the IC50 amounted to 0.154 µM.

On to `Cc1ccc(-c2cc(CN3CCC(C(F)(F)F)CC3)c3c(N)ncnn23)cc1C(=O)N[C@@H]1CN(C(=O)C2CC(F)(F)C2)C[C@@H]1F` [Example 1648, 5-(4-amino-5-{[4-(trifluoromethyl)piperidin-1-yl]methyl}pyrrolo[2,1-f][1,2,4]triazin-7-yl)-N-[(3R,4S)-1-(3,3-difluorocyclobutanecarbonyl)-4-fluoropyrrolidin-3-yl]-2-methylbenzamide], for which the IC50 came out at 0.00067 µM.

With `COc1ccc(-c2cc(C(F)(F)F)c3c(N)ncnn23)cc1C(=O)NCc1ccccc1Oc1ccccc1` [Example 162, 5-[4-amino-5-(trifluoromethyl)pyrrolo[2,1-f][1,2,4]triazin-7-yl]-2-methoxy-N-[(2-phenoxyphenyl)methyl]benzamide], the IC50 amounted to 0.351 µM.

In the case of `COc1ncc(-c2cc(C(F)(F)F)c3c(N)ncnn23)cc1C(=O)NCCCOC(C)(C)C` [Example 112, 5-[4-amino-5-(trifluoromethyl)pyrrolo[2,1-f][1,2,4]triazin-7-yl]-N-[3-(tert-butoxy)propyl]-2-methoxypyridine-3-carboxamide], the IC50 came to 0.343 µM.

For `Cc1cc(-c2cc(C(F)(F)F)c3c(N)ncnn23)cc(C(=O)N[C@@H]2CN(C(=O)C(C)(C)F)C[C@@H]2F)c1Cl` [Example 705, 5-[4-amino-5-(trifluoromethyl)pyrrolo[2,1-f][1,2,4]triazin-7-yl]-2-chloro-N-[(3R,4S)-4-fluoro-1-(2-fluoro-2-methylpropanoyl)pyrrolidin-3-yl]-3-methylbenzamide], the IC50 worked out at 0.018 µM.

As to `COc1c(F)cc(-c2cc(C(F)(F)F)c3c(N)ncnn23)cc1C(=O)N[C@@H]1CN(C(=O)C2CCC(F)(F)C2)C[C@@H]1F` (stereo partly drawn) [Example 698, 5-[4-amino-5-(trifluoromethyl)pyrrolo[2,1-f][1,2,4]triazin-7-yl]-N-[(3R,4S)-1-(3,3-difluorocyclopentanecarbonyl)-4-fluoropyrrolidin-3-yl]-3-fluoro-2-methoxybenzamide], the 50% inhibitory concentration (IC50) was found to be 0.026 µM.

Regarding `CCC(O)(C(=O)N1C[C@H](F)[C@H](NC(=O)c2cc(-c3cc(C(F)(F)F)c4c(N)ncnn34)ccc2CF)C1)C(F)(F)F` (stereo partly drawn) [Example 922, 5-[4-amino-5-(trifluoromethyl)pyrrolo[2,1-f][1,2,4]triazin-7-yl]-N-[(3R,4S)-4-fluoro-1-[2-hydroxy-2-(trifluoromethyl)butanoyl]pyrrolidin-3-yl]-2-(fluoromethyl)benzamide], the IC50 turned out to be 0.0042 µM.

For `COc1ncc(-c2cc(C(F)(F)F)c3c(N)ncnn23)cc1C(=O)NC1CN(CC2CCOC2)CC1F` (racemic) [Example 186, 5-[4-amino-5-(trifluoromethyl)pyrrolo[2,1-f][1,2,4]triazin-7-yl]-N-{4-fluoro-1-[(oxolan-3-yl)methyl]pyrrolidin-3-yl}-2-methoxypyridine-3-carboxamide], the IC50 worked out at 0.228 µM.

With `COc1ccc(-c2cc(C(F)(F)F)c3c(N)ncnn23)cc1C(=O)NCc1nccnc1Cl` [Example 164, 5-[4-amino-5-(trifluoromethyl)pyrrolo[2,1-f][1,2,4]triazin-7-yl]-N-[(3-chloropyrazin-2-yl)methyl]-2-methoxybenzamide], the IC50 was found to be 0.097 µM.
